From the supplement of paper PMC11741623
Some of the results follow. Interaction screen of human proteins with wild-type SARS-CoV-2 proteins by split-DHFR complementation in yeast, 1 µg/mL methotrexate. Value = fitness of the pair (three or more lineages) minus that of the viral protein without a human partner, on a scale set by negative (0) and fused positive (1) controls, mean of up to three cultures; higher = more likely to interact. Active = false discovery rate below 0.05 (one-sided t-test) in at least one culture. Nearly all pairs are not hits, and differences among them are mostly noise (correlation between cultures about 0.3); most hits were seen in one culture only. Human sequences are the Swiss-Prot entries looked up by gene name; the clone may be another isoform. NSP2 values were corrected by the authors for a growth advantage. Listed are human proteins with a hit and a random twelfth of the others.

B1: ABCF2, Q9UG63 (protein)
chain: MPSDLAKKKAAKKKEAAKARQRPRKGHEENGDVVTEPQVAEKNEANGRETTEVDLLTKELEDFEMKKAAARAVTGVLASHPNSTDVHIINLSLTFHGQELLSDTKLELNSGRRYGLIGLNGIGKSMLLSAIGKREVPIPEHIDIYHLTREMPPSDKTPLHCVMEVDTERAMLEKEAERLAHEDAECEKLMELYERLEELDADKAEMRASRILHGLGFTPAMQRKKLKDFSGGWRMRVALARALFIRPFMLLLDEPTNHLDLDACVWLEEELKTFKRILVLVSHSQDFLNGVCTNIIHMHNKKLKYYTGNYDQYVKTRLELEENQMKRFHWEQDQIAHMKNYIARFGHGSAKLARQAQSKEKTLQKMMASGLTERVVSDKTLSFYFPPCGKIPPPVIMVQNVSFKYTKDGPCIYNNLEFGIDLDTRVALVGPNGAGKSTLLKLLTGELLPTDGMIRKHSHVKIGRYHQHLQEQLDLDLSPLEYMMKCYPEIKEKEEMRKIIGRYGLTGKQQVSPIRNLSDGQKCRVCLAWLAWQNPHMLFLDEPTNHLDIETIDALADAINEFEGGMMLVSHDFRLIQQVAQEIWVCEKQTITKWPGDILAYKEHLKSKLVDEEPQLTKRTHNV
B2: IL25, Q9H293 (protein)
chain: MRERPRLGEDSSLISLFLQVVAFLAMVMGTHTYSHWPSCCPSKGQDTSEELLRWSTVPVPPLEPARPNRHPESCRASEDGPLNSRAISPWRYELDRDLNRLPQDLYHARCLCPHCVSLQTGSHMDPRGNSELLYHNQTVFYRRPCHGEKGTHKGYCLERRLYRVSLACVCVRPRVMG
B3: ACADS, P16219 (protein)
chain: MAAALLARASGPARRALCPRAWRQLHTIYQSVELPETHQMLLQTCRDFAEKELFPIAAQVDKEHLFPAAQVKKMGGLGLLAMDVPEELGGAGLDYLAYAIAMEEISRGCASTGVIMSVNNSLYLGPILKFGSKEQKQAWVTPFTSGDKIGCFALSEPGNGSDAGAASTTARAEGDSWVLNGTKAWITNAWEASAAVVFASTDRALQNKGISAFLVPMPTPGLTLGKKEDKLGIRGSSTANLIFEDCRIPKDSILGEPGMGFKIAMQTLDMGRIGIASQALGIAQTALDCAVNYAENRMAFGAPLTKLQVIQFKLADMALALESARLLTWRAAMLKDNKKPFIKEAAMAKLAASEAATAISHQAIQILGGMGYVTEMPAERHYRDARITEIYEGTSEIQRLVIAGHLLRSYRS
B4: FAM89B, Q8N5H3 (protein)
chain: MNGLPSAEAPGGAGCALAGLPPLPRGLSGLLNASGGSWRELERVYSQRSRIHDELSRAARAPDGPRHAAGAANAGPAAGPRRPVNLDSALAALRKEMVGLRQLDMSLLCQLWGLYESIQDYKHLCQDLSFCQDLSSSLHSDSSYPPDAGLSDDEEPPDASLPPDPPPLTVPQTHNARDQWLQDAFHISL

Each binder was assayed against SARS-CoV-2 M (assay: yeast fitness gain over the viral ORF with no human partner (scaled fitness); higher = more likely to interact).
Experimental: (§1)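 Split mouse DHFR complementation in pooled diploid yeast: human ORFeome clones carry one fragment and viral ORFs the other; barcoded lineages compete in 1 µg/mL methotrexate and fitness is read by barcode sequencing in up to three cultures.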

| Binder | yeast fitness gain |
| --- | --- |
| B1 | inactive: 0.13 |
| B2 | inactive: 0.0512 |
| B3 | inactive: 0.0204 |
| B4 | inactive: 0.0324 |

The binders below were run against SARS-CoV-2 NSP1 in the same assay as above.
Experimental: as §1

| Binder | yeast fitness gain |
| --- | --- |
| B1 | inactive: 0.114 |
| B3 | inactive: -0.171 |
| B4 | inactive: 0.0625 |

What follows are binders tested against SARS-CoV-2 NSP10 in the same assay as above.
Experimental: as §1

| Binder | yeast fitness gain |
| --- | --- |
| B1 | inactive: 0.0374 |
| B2 | inactive: 0.00664 |
| B3 | inactive: 0.0232 |
| B4 | inactive: -0.0158 |

The binders below were run against SARS-CoV-2 NSP12 in the same assay as above.
Experimental: as §1

| Binder | yeast fitness gain |
| --- | --- |
| B1 | inactive: -0.0634 |
| B2 | inactive: 0.0218 |
| B3 | inactive: 0.0144 |
| B4 | inactive: 0.052 |

Each binder was assayed against SARS-CoV-2 NSP13 in the same assay as above.
Experimental: as §1

| Binder | yeast fitness gain |
| --- | --- |
| B1 | inactive: 0.0411 |
| B2 | inactive: -0.00396 |
| B3 | inactive: 0.028 |
| B4 | inactive: -0.0923 |

The binders below were run against SARS-CoV-2 NSP15 in the same assay as above.
Experimental: as §1

| Binder | yeast fitness gain |
| --- | --- |
| B1 | inactive: -0.0185 |
| B3 | inactive: -0.0151 |
| B4 | inactive: 0.0291 |

The binders below were run against SARS-CoV-2 NSP16 in the same assay as above.
Experimental: as §1

| Binder | yeast fitness gain |
| --- | --- |
| B1 | inactive: -0.0249 |
| B2 | inactive: 0.0762 |
| B3 | inactive: -0.0533 |
| B4 | inactive: 0.0374 |

The binders below were run against SARS-CoV-2 NSP2 in the same assay as above.
Experimental: as §1

| Binder | yeast fitness gain |
| --- | --- |
| B1 | inactive: -0.115 |
| B2 | inactive: -0.00308 |
| B3 | inactive: -0.0843 |
| B4 | inactive: -0.182 |

These binders were tested against SARS-CoV-2 NSP7 in the same assay as above.
Experimental: as §1

| Binder | yeast fitness gain |
| --- | --- |
| B1 | inactive: -0.0856 |
| B3 | inactive: 0.0368 |
| B4 | inactive: 0.0149 |

These binders were tested against SARS-CoV-2 NSP9 in the same assay as above.
Experimental: as §1

| Binder | yeast fitness gain |
| --- | --- |
| B1 | inactive: 0.0655 |
| B3 | inactive: 0.0309 |
| B4 | inactive: -0.0224 |

These binders were tested against SARS-CoV-2 ORF10 in the same assay as above.
Experimental: as §1

| Binder | yeast fitness gain |
| --- | --- |
| B1 | inactive: -0.0321 |
| B2 | inactive: -0.0117 |
| B3 | inactive: -0.0278 |
| B4 | inactive: 0.000941 |

What follows are binders tested against SARS-CoV-2 ORF3A in the same assay as above.
Experimental: as §1

| Binder | yeast fitness gain |
| --- | --- |
| B1 | inactive: -0.0329 |
| B4 | inactive: 0.0335 |

These binders were tested against SARS-CoV-2 ORF3B in the same assay as above.
Experimental: as §1

| Binder | yeast fitness gain |
| --- | --- |
| B1 | inactive: 0.00593 |
| B2 | inactive: -0.0129 |
| B3 | inactive: 0.0243 |
| B4 | inactive: 0.0461 |

These binders were tested against SARS-CoV-2 ORF6 in the same assay as above.
Experimental: as §1

| Binder | yeast fitness gain |
| --- | --- |
| B1 | inactive: 0.0215 |
| B2 | inactive: 0.0602 |
| B3 | inactive: -0.0528 |
| B4 | inactive: -0.0573 |

What follows are binders tested against SARS-CoV-2 ORF7A in the same assay as above.
Experimental: as §1

| Binder | yeast fitness gain |
| --- | --- |
| B1 | inactive: -0.0124 |
| B2 | inactive: -2e-05 |
| B3 | inactive: 0.00674 |
| B4 | inactive: -0.0652 |

Each binder was assayed against SARS-CoV-2 ORF7B in the same assay as above.
Experimental: as §1

| Binder | yeast fitness gain |
| --- | --- |
| B1 | inactive: -0.0011 |
| B2 | inactive: -0.085 |
| B3 | inactive: -0.00702 |
| B4 | inactive: -0.00299 |

What follows are binders tested against SARS-CoV-2 ORF8 in the same assay as above.
Experimental: as §1

| Binder | yeast fitness gain |
| --- | --- |
| B1 | inactive: -0.134 |
| B2 | inactive: -0.0297 |
| B3 | inactive: 0.0288 |
| B4 | inactive: -0.0384 |

Each binder was assayed against SARS-CoV-2 ORF9B in the same assay as above.
Experimental: as §1

| Binder | yeast fitness gain |
| --- | --- |
| B1 | inactive: 0.0549 |
| B2 | inactive: 0.0283 |
| B3 | inactive: 0.0346 |
| B4 | inactive: 0.0685 |

Each binder was assayed against SARS-CoV-2 S in the same assay as above.
Experimental: as §1

| Binder | yeast fitness gain |
| --- | --- |
| B1 | inactive: -0.067 |
| B3 | inactive: -0.0606 |
| B4 | inactive: -0.1 |

Each binder was assayed against SARS-CoV-2 N in the same assay as above.
Experimental: as §1

| Binder | yeast fitness gain |
| --- | --- |
| B2 | inactive: 0.223 |
| B3 | inactive: 0.0838 |
| B4 | inactive: 0.016 |

What follows are binders tested against SARS-CoV-2 NSP14 in the same assay as above.
Experimental: as §1

| Binder | yeast fitness gain |
| --- | --- |
| B2 | inactive: -0.0622 |
| B3 | inactive: -0.359 |

What follows are binders tested against SARS-CoV-2 NSP4 in the same assay as above.
Experimental: as §1

| Binder | yeast fitness gain |
| --- | --- |
| B2 | inactive: 0.0125 |

These binders were tested against SARS-CoV-2 NSP5 in the same assay as above.
Experimental: as §1

| Binder | yeast fitness gain |
| --- | --- |
| B2 | inactive: 0.0427 |
| B3 | inactive: -0.0282 |
| B4 | inactive: -0.147 |

The binders below were run against SARS-CoV-2 NSP6 in the same assay as above.
Experimental: as §1

| Binder | yeast fitness gain |
| --- | --- |
| B2 | inactive: 0.00991 |
| B3 | inactive: 0.0607 |
| B4 | inactive: -0.066 |

The binders below were run against SARS-CoV-2 NSP8 in the same assay as above.
Experimental: as §1

| Binder | yeast fitness gain |
| --- | --- |
| B2 | inactive: 0.033 |
| B3 | inactive: -0.0275 |
| B4 | inactive: -0.0039 |

The binders below were run against SARS-CoV-2 ORF9Bwu (the 73-codon ORF) in the same assay as above.
Experimental: as §1

| Binder | yeast fitness gain |
| --- | --- |
| B3 | inactive: 0.086 |
| B4 | inactive: -0.144 |
